Experimental data: the RNAGym collection of RNA variant scans (doi:10.1073/pnas.2313332121)
This sample is rich in variants without activity.

B1: TPR 5TU (parent)
chain: GGAUCUUCUCGAUCUAACAAAAAAGACAAAUCUGCCACAAAGCUUGAGAGCAUCUUCGGAUGCAGAGGCGGCAGCCUUCGGUGGCGCGAUAGCGCCAACGUUCUCAACUAUGACACGCAAAACGCGUGCUCCGUUGAAUGGAGUUUAUCAUG

Variants of: B1
Assay: polymerase ribozyme fitness, log enrichment relative to wild type (log ratio); higher = more active; in vitro selection for triplet polymerase activity
Method in brief: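 After PCR construction and transcription, each subunit's mutant library from a heterodimeric triplet polymerase ribozyme was annealed with a biotinylated primer, the partner subunit and triplets. Incubation was frozen, at −7 °C, and extended constructs were gel-excised, bound to streptavidin beads and amplified by RT-PCR, in one selection round done in triplicate. Fitness is the logarithm of a genotype's enrichment divided by that of the wild type, from inverse-variance-weighted replicate averages of Illumina-sequenced inputs and outputs. The base of the logarithm is 2, and genotypes needed ≥10 input reads and ≥1 read per output.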

Variant	polymerase ribozyme fitness (log ratio)
A12U C14G U53G U77C C103G G126U G141A	≤ -4.2
A12U C18G A20G A21C U53G C72U C87G G88C G117U U127C G143A	≤ -4.2
A12U C18G G50A G70C A89U C93U A106G G126A G141A C149U	≤ -4.2
A12U C18G G50C A120U C125U C149G	≤ -4.2
A12U C18U A26C C54U C76G G84C A115G A142C U145C	≤ -4.2
A12U C27U A73U C96G A97U A107G	≤ -4.2
A12U C27U G58C C96U G124C G140U	≤ -4.2
A12U C35U A91G	-3.67
A12U C36A C87U G143U	≤ -4.2
A12U C38G A113C U134C	≤ -4.2
A12U C38U C93U U102G U145C	≤ -4.2
A12U C38U G65C C69U C125G	≤ -4.2
A12U C38U G83U	-0.788
A12U C38U U77C A98G G124C	≤ -4.2
A12U C43A G83A A89U C105U A107G	≤ -4.2
A12U C54U G59C A60G U144G	-0.245
A12U C63A U78G C95U	≤ -4.2
A12U C72U A73G A138C A142U A147C	≤ -4.2
A12U C76G C85U C103A G126C U145G	≤ -4.2
A12U C76U G80C C87U C108G A137U	≤ -4.2
A12U C85A C96A	-2.97
A12U C87G	-4.2
A12U C87U A97U	-0.917
A12U C87U A119U	-1.23

Variant	polymerase ribozyme fitness (log ratio)
A12U G34A A49C U56A C93A C95G G140C U146C	≤ -4.2
A12U G50A C85A G88A A121G	≤ -4.2
A12U G58U G83A C93A	≤ -4.2
A12U G67U G84A A110U	≤ -4.2
A12U G68A G71A C93U U134G	≤ -4.2
A12U G71A A107C	≤ -4.2
A12U G84U	-1.97
A12U G88C C114U	≤ -4.2
A12U G88U G92C U130A U145C	≤ -4.2
A12U G92U	-1.64
A12U U13G A24C A41G A49U C76A C99A G128C G136U A137U	≤ -4.2
A12U U15C A49C G88C C123U G143C	≤ -4.2
A12U U15C U56A G92A A150G	-1.16
A12U U31C C32U A40U C57G A73G C75A G88A G152A	≤ -4.2
A12U U44G C54U C85U A98G	≤ -4.2
A12U U45A U55G A66G U78C G88U C95G A137U	≤ -4.2
A12U U56A C85G G88A C116G A119U A120C	≤ -4.2
A12U U77G G84A C85A G94A G100A C105U G128U U130G	≤ -4.2
A12U U82G	-1.49
A12U U90A G92U G126A A147U	≤ -4.2
A12U U135A G136C U146G	≤ -4.2
U13A A16C A91G	-2.83
U13A A17U C35U C75U C108U U144C U151G	≤ -4.2
U13A A17U U31G G59A C95U A110U A137G G140U G141U	≤ -4.2

Variant	polymerase ribozyme fitness (log ratio)
U13A A19U C75U U78C G80C A150G	≤ -4.2
U13A A20U C51A G86C	≤ -4.2
U13A A26U C76U U146A	-3.35
U13A A28U C36U G81C	≤ -4.2
U13A A30G A37C G68U	≤ -4.2
U13A A30G G83U A110U G117C	≤ -4.2
U13A A40C C57A G88A A119C	≤ -4.2
U13A A40U G50U A64C G92U C118U	≤ -4.2
U13A A41C C51G U56A C57A U130A	≤ -4.2
U13A A41G A52C C75A C93A C108A U144A	≤ -4.2
U13A A52G U82A	-0.721
U13A A52U A73G C85A U134G	≤ -4.2
U13A C14G A17U U31A C35A A41C U104G	≤ -4.2
U13A C14G C27U U56C C57A G58C G62A C87G U90C C123U C131G G152C	≤ -4.2
U13A C18G	-0.831
U13A C18G A30G A60C G68C C79G C87G A106U	≤ -4.2
U13A C27U A113G C116G A119U G124C	≤ -4.2
U13A C36A G50A C79U C96A	≤ -4.2
U13A C38A U61A C69G A73C A91C C95G U144C	≤ -4.2
U13A C57U G58A U61A C63U G80C C85G C95U C125U U127C	≤ -4.2
U13A C87A A110C U134C	≤ -4.2
U13A C87A C93A C95G A121U U127G G140A	≤ -4.2
U13A G42A A49U U61A G88U A91G G100U G141C	≤ -4.2
U13A G50A U56C G83C C85A G94U U134G A137C	≤ -4.2

Variant	polymerase ribozyme fitness (log ratio)
U13A G58A C87U C105A C108U G124A U145A	≤ -4.2
U13A G58C G94A C108G C114G	≤ -4.2
U13A G80U G100U G136A C149U	≤ -4.2
U13A U15G G34U G88C G92A C96A	≤ -4.2
U13A U45A C54U U109C	≤ -4.2
U13A U53A C85U C87U G88C	≤ -4.2
U13C A16U	-0.079
U13C A19C A89U C95U U146G A150U	-2.94
U13C A20C A52C U90G G94A C95A C105U U130G	≤ -4.2
U13C A20U A52G G80C A91G A121U	≤ -4.2
U13C A26U C51U A91U C93U C114A A138G	≤ -4.2
U13C A28G A66G U104G A113G U145G	≤ -4.2
U13C A37G G67A U134A G152A	≤ -4.2
U13C A37G G126C	-1.85
U13C A37U U102C C105U A119G	≤ -4.2
U13C A40U A64C U90G G100C A120U	≤ -4.2
U13C A49C G74U U77A C93U U134G	≤ -4.2
U13C A49G C54G G68A	≤ -4.2
U13C C14A A20U C38A C96A A110G	≤ -4.2
U13C C14G C43G A91G A106U U109G A138G	-4.06
U13C C27U G50C G92C	-4.02
U13C C32U A47C C57A U77A	≤ -4.2
U13C C36A G100A A122G C123A	≤ -4.2
U13C C51A G83C A89G C125U	≤ -4.2

Variant	polymerase ribozyme fitness (log ratio)
U13C C57U A73C G94C G136A A147C	≤ -4.2
U13C C63G G68A G133U U144G U148G	≤ -4.2
U13C C85G C87U G94C A110G C125U U135A	≤ -4.2
U13C C85G C99A A138C	≤ -4.2
U13C G42C C96U A122C	≤ -4.2
U13C G48A C69U G81U C96G C116U A122U G141A	≤ -4.2
U13C G58C G67A G94C	≤ -4.2
U13C G59A U61G G62A C93U G141C	≤ -4.2
U13C U33A A91G G94U U151G	≤ -4.2
U13G A17C A21C G62A C75U A97U A107G A119U	≤ -4.2
U13G A17G A19C A49C C51U G74U G143C	≤ -4.2
U13G A17G C96A G143C	-4.19
U13G A19U A22C C54G A60U C76A C79U G92U A98U	≤ -4.2
U13G A20C U55G U90G C95G C105A C116G G124A	≤ -4.2
U13G A21C A23U A30G U31A G62A C76G A89U A91U C114U C118G U148C	≤ -4.2
U13G A23C G34C A64C U82A U139A	≤ -4.2
U13G A24C A30C G42A C103U G126C G128U C129A A137G	≤ -4.2
U13G A24C C51U G94A	≤ -4.2
U13G A24U A30G C87U G88C U102C A147U	≤ -4.2
U13G A24U A66C C76A U144A U146A	≤ -4.2
U13G A28C A41G C54A C75A U82A A91U G141A U151G	≤ -4.2
U13G A29C U77G G83U A91C A121G	≤ -4.2
U13G A29G U33G G42A U44A G80C G88U C96U C105G G112C C123G	≤ -4.2
U13G A29U C93U C129G	≤ -4.2

Variant	polymerase ribozyme fitness (log ratio)
U13G A37C G83A G124C A142C	≤ -4.2
U13G A37G C87A G143A	≤ -4.2
U13G A40C C96G A119G	-1.98
U13G A40U A60C C99G G100C	≤ -4.2
U13G A52C C87A G141A	≤ -4.2
U13G A122C A142C	-2.05
U13G C14G A23U C27A G68A C87A	≤ -4.2
U13G C14G U31A A41C G86A U90G G100A C131A	≤ -4.2
U13G C18G U45A G59U U104G U134C G140U U144A	≤ -4.2
U13G C32G G94A	≤ -4.2
U13G C32U C36U U55A G68U U77G G143U U144C	≤ -4.2
U13G C35U C54A U56C C93A U102G	≤ -4.2
U13G C36G A41U G50A G83A G86U C95U	≤ -4.2
U13G C43A U82G G100A U146G	≤ -4.2
U13G C57A	-0.243
U13G C72U C75G C131G U139G	≤ -4.2
U13G C75A C108G G143A	≤ -4.2
U13G C76A C132U A150U	≤ -4.2
U13G C79A C118U	≤ -4.2
U13G C96U A97U A137U	≤ -4.2
U13G C103A	-2.97
U13G G46C C54U G92U	-3.24
U13G G48C G81A C96A	≤ -4.2
U13G G50U A52C U55A C87U A107G A137C	≤ -4.2

Variant	polymerase ribozyme fitness (log ratio)
U13G G50U A52U G59C A89G A110C U151G	≤ -4.2
U13G G68A G74A C95U C105G C118A C123A	≤ -4.2
U13G G68A U139C	≤ -4.2
U13G G70U C85U C99A A142C	≤ -4.2
U13G G92C C114U A150U	≤ -4.2
U13G G136A A137G C149U	-3.07
U13G G136A U144C	-2.04
U13G U15A C69A C123U G141A A150C	≤ -4.2
U13G U31A A41G C79A G83A G94U C125G	≤ -4.2
U13G U31C C96A	-0.864
U13G U44G C87A C96U C108G A110U	≤ -4.2
U13G U53A A66C G83U C149A	≤ -4.2
U13G U56G G84U C85A C99U A138U	≤ -4.2
U13G U61A C85A G92U U148C	≤ -4.2
U13G U77G U145G U151G	≤ -4.2
C14A A16U A19U A20G A107C G124A	≤ -4.2
C14A A16U U44A G50U C51A U90A G92A A107G G112U A137G	≤ -4.2
C14A A17G A39C G70A U111G	≤ -4.2
C14A A17G C35U A47C U61A C96U A110G	≤ -4.2
C14A A19C C27U C51G C93A U134A U146G	≤ -4.2
C14A A19U A26U A28U C51A G86U A122C	≤ -4.2
C14A A20C C27A G58U A89G C93U	≤ -4.2
C14A A20C U33A A40C G48A G86U	≤ -4.2
